In patent publication CN114805562A (GUANGDONG FAPON PHARMACEUTICAL CO LTD, dated 2022) one finds IC50 data, which are given here for one molecule.

In test [1] the target is T1, Delta变异株新型冠状病毒SARS-COV-2 RBD蛋白 (SARS-COV-2 (Delta变异株)).
T1 construct: domain: RBD; also called Delta variant SARS-CoV-2 RBD
Put plainly: competition ELISA: coated Delta RBD, antibody titrated, then ACE2. Background: In an ELISA, binding on a coated surface is turned into a signal by an enzyme label.

The target of test [2] is T2, Omicron变异株新型冠状病毒SARS-COV-2 RBD蛋白 (SARS-COV-2 (Omicron变异株)).
T2 construct: domain: RBD; also called Omicron variant SARS-CoV-2 RBD
Briefly: competition ELISA: coated Omicron RBD, antibody titrated, then ACE2.

B1: 驼源性纳米抗体 R1382 (RX011 VHH linked directly to hIgG1-Fc) (Fc fusion)
chain: QVQLVESGGGPVQAGGSLRLSCTCSRCTFNWDGMGWFRQAPGKEREFVATISWSGQEPAYADSVKGRFTISRDKPKNTVYLQMTSLKSEDTAVYYCAAAQYTGASYSILRDQVGYDYWGQGTRVTVSA[letters of human IgG1 Fc with changes omitted]
notes: also called RX011-hIgG1-Fc; 对照组
As for B1, the IC50 in test [1] amounted to 0.0137 nM; in test [2], 0.17 nM.

By IC50 is commonly meant the concentration at which inhibition is half-maximal. Read a low IC50 as greater potency.
